Structures are written as SMILES. Out of some 48,000 compounds screened, about 1,200 (2.5%) were called active. Another 2% or so got no clear call; they are omitted.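 How the source made its calls: active means activation of at least 60% and not above a set upper limit (about 1 call in 100 departs from these limits); inconclusive means activation of 40% to 60%, or above that upper limit; inactive means activation under 40%.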 The list shows a part of the results.

From PubChem BioAssay AID1346428 (National Center for Advancing Translational Sciences (NCATS), 2018) come the findings set out here.

Chain of UniProt O75388 (O75388 whole entry, looked up): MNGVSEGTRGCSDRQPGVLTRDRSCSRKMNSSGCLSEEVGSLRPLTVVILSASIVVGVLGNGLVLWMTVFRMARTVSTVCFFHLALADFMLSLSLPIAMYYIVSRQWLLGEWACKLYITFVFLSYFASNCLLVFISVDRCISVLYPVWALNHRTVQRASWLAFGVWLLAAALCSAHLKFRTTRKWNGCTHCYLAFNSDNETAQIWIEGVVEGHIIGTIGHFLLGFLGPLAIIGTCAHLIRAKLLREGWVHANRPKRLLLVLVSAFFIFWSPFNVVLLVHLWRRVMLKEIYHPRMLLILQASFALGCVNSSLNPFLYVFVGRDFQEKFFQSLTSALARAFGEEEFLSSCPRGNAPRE

The assay deals with Probable G-protein coupled receptor 32 (Homo sapiens) (UniProt O75388). In words: qHTS for Agonists of Human Resolvin D1 Receptor DRV1. The following applies: CHO-K1 GPR32 beta-arrestin PathHunter luminescence, 90 min; at 76.9 µM; hits give high values; zero percent set by DMSO-only wells. In outline:
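Using DMSO wells as EC0, agonist-induced signal was taken as chemiluminescence from beta-Gal reconstituted upon beta-arrestin recruitment to GPR32 in CHO-K1 cells after 90 min compound treatment.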
For the compound `Cc1cccc(C2CC(=O)Oc3c2c(=O)n(C)c2ccccc32)c1` (stereo not drawn), the activation is inactive: -0.527%.
The result for `CCc1ccc(Cc2cnc(NC(=O)c3ccc4c(c3)CC(c3ccccc3)OC4=O)s2)cc1` (stereo not drawn) reads inactive: 3.81%.
In the case of `CCOC(=O)C1CCN(C(=O)C2CCN(C3=NS(=O)(=O)C(c4ccc(C)c(C)c4)=C3C)CC2)CC1` it was inactive: 2.03%; in that of `Cc1ccc(-n2c(=O)c3oc4ccccc4c3n(Cc3ccccc3F)c2=O)cc1C`, inactive: -9.63%; in that of `O=C(Cn1c(=O)n(-c2ccc(F)c(Cl)c2)c(=O)c2sc3ccccc3c21)NC1CCCC1`, inactive: -6.6%.
The result for `CC(C)CCNC(=O)C1CCC(Cn2c(=O)c3sccc3n(CC(=O)NC(C)C)c2=O)CC1` (stereo not drawn) reads inactive: -7.71%.
In the case of `CCC(C)NC(=O)C(=O)Nc1c2c(nn1-c1ccccc1)CS(=O)(=O)C2` (stereo not drawn), the activation was inactive: -5.5%.
Regarding `COc1ccc(CNC(=O)c2cc3c(s2)-c2ccccc2OC3)cc1`, the activation is inactive: -2.66%.
In the case of `CC1CN(C(=O)CCC(=O)NCc2ccc(F)cc2)c2cc(Cl)ccc2O1` (stereo not drawn) it was inactive: -22%; in that of `O=C(c1ccc2c(c1)N(Cc1ccc(Cl)cc1)C(=O)c1ccccc1S2(=O)=O)N1CCCCC1`, inactive: -5.33%; in that of `O=C(Nc1nc2ccc(F)cc2s1)c1nc(S(=O)(=O)Cc2ccccc2)ncc1Cl`, active: 90.7%.
In the case of `CCOC(=O)c1c(NC(C)=O)c2c3c(sc2n1Cc1nc(-c2ccccc2C)oc1C)CCCC3` it was inactive: -1.73%; in that of `COc1ccc(NC(=O)CSc2nc3c(oc4ccccc43)c(=O)n2-c2ccc(C)c(C)c2)cc1`, inactive: -15.2%; in that of `CCOc1ccc(CCNC(=O)C2COc3ccccc3C2)cc1OCC` (stereo not drawn), inactive: -20%.
In the case of `O=C(CN1C(=O)CCSc2ccccc21)Nc1ccccc1F`, the activation is inactive: -1.06%.
In the case of `Cc1ccc(NC(=O)C(=O)NCC(c2cccnc2)N2CCN(C)CC2)cc1F` (stereo not drawn) it was inactive: 0.636%; in that of `COC(=O)C(CCSC)NC(=O)c1c(C)oc2ncn(CC(C)C)c(=O)c12` (stereo not drawn), inactive: -43.8%; in that of `Cc1c(Cl)cccc1NC(=O)CSc1ncccc1C(=O)Oc1ccccc1Cl`, inactive: -9.42%.
In the case of `CCOC(=O)c1ccc(NC(=O)c2ccc3c(c2)NC(=O)c2ccccc2S3)cc1` it was inactive: 9.4%; in that of `COc1cccc(C(=O)Nc2ccc(-c3cn4cccnc4n3)cc2)c1OC`, inactive: 21.2%.
In the case of `CCOc1ccc(NC(=O)Cn2ccn(-c3ccc(F)c(F)c3)c(=O)c2=O)cc1` it was inactive: -4.83%; in that of `COc1ccc(CNC(=O)c2cccc(-n3cnc4cccnc43)c2C)cc1`, inactive: -2.74%.
In the case of `COc1cc2ccccc2cc1C(=O)Nc1ccc(Cl)c(-c2nc3ccccc3o2)c1`, the activation was inactive: 12.6%.
The result for `CCOCCSc1c(C)cnc2c1c(=O)n(C)c(=O)n2C` reads inactive: 0.0504%; that for `CCC(C)NC(=O)c1ccc2nc(Cc3ccc(OC)cc3)oc2c1` (stereo not drawn), inactive: -25.1%; that for `CCn1ccc2cc(S(=O)(=O)N3CCC(C(=O)NCCc4ccc(C)cc4)CC3)ccc21`, inactive: -14%.
The result for `COc1ccc(NC(=O)CSCc2cnn(-c3ccccc3)c2-n2cccc2)cc1` reads inactive: -9.73%; that for `COc1cc(C(=O)N2CCN(CCc3ccccn3)CC2)cc(OC)c1OC`, inactive: 19.8%; that for `COc1cc(OC)cc(C(=O)NCC(c2cccs2)S(=O)(=O)c2ccc(F)c(C)c2)c1` (stereo not drawn), inactive: -12.2%.
Turning to `COc1ccccc1NC(=O)CN1C(=O)C2(SCC(=O)N2c2ccc(C)c(C)c2)c2ccccc21` (stereo not drawn), the activation was inactive: 18.7%.
In the case of `CC1=C(c2ccc(C)cc2)S(=O)(=O)N(Cc2ccc(C(=O)Nc3ccc(F)cc3C)cc2)C1=O` it was inactive: 0.313%; in that of `Cc1cccc(-c2nc3c4ccccc4nc(NCc4ccc(Cl)cc4)n3n2)c1`, inactive: -1.58%; in that of `CC(=O)c1ccc(NC(=O)CSc2cn(CC(=O)N3CCCCCC3)c3ccccc23)cc1`, inactive: -5.29%.
The result for `CCc1ccc2oc(-c3cc(NC(=O)C(C)C)cc(C)c3O)nc2c1` reads inactive: 7.15%; that for `COc1ccc(NC(=O)CSc2oc(-c3ccco3)nc2S(=O)(=O)c2ccc(Br)cc2)c(OC)c1`, inactive: -11.1%.
Turning to `COc1ccc(-c2cc(C(=O)NCc3ccc(F)cc3)c3c(-c4ccc(F)cc4)[nH]nc3n2)cc1OC`, the activation was inactive: -3.9%.
The result for `CC(C)Cn1c(=O)c2sccc2n2c(CCCC(=O)NCc3ccccc3Cl)nnc12` reads inactive: -11.1%; that for `COc1cccc(CNC(=O)C2CCN(S(=O)(=O)c3cn(C)cn3)CC2)c1`, inactive: -11.9%; that for `CC(=O)N1c2ccc(S(=O)(=O)N3CCCCCC3)cc2CC1C(=O)NCc1ccc(Cl)cc1` (stereo not drawn), inactive: -4.48%.
Take `CCOC(=O)N1CCC(NC(=O)c2cnn(-c3cccc(Cl)c3C)c2C2CCN(C(=O)OC(C)(C)C)CC2)CC1`: the activation was inactive: 8.54%.
For `CCCOc1ccc(-c2nonc2NC(=O)c2oc3ccc(C)cc3c2C)cc1OCCC`, the activation was inactive: -4.27%.
The result for `O=C(Cn1cc(SCc2ccc(C(F)(F)F)cc2)c2ccccc21)N1CCCC1` reads inactive: -6.49%; that for `CCc1sc(Nc2cccc(Cl)c2C)nc1-c1cc2cccc(OC)c2oc1=O`, inactive: -32.6%; that for `COc1cccc(CN2CCc3nc(N4CCN(c5ncccn5)CC4)ncc3C2)c1`, inactive: -14.8%.
In the case of `Oc1ccc(Cl)cc1C1=Nc2ccccc2N=C(c2cccc(Br)c2)C1` it was inactive: -4.62%; in that of `CN1CCN(c2nc3c(S(=O)(=O)c4ccc(Br)cc4)nnn3c3ccsc23)CC1`, inactive: -0.768%.
On to `O=C(CC1C(=O)OCCN1Cc1ccccc1)Nc1cccc(C(F)(F)F)c1` (stereo not drawn), for which the activation is active: 112%.
In the case of `COc1ccc(OC)c(NC(=O)c2cc(CN3CCCC3)on2)c1` it was inactive: -15.9%.
`S=c1nc[nH]c2nc[nH]c12`: the activation was inactive: -0.834%.
In the case of `COc1cc(OC)c(NC(=O)NCc2ccc3c(c2)CCN3C(=O)c2ccccc2)cc1Cl` it was inactive: -11.7%; in that of `COC(=O)c1sc2cccc(F)c2c1S(=O)(=O)N1CCN(c2ccc(F)cc2)CC1`, inactive: -28.6%; in that of `Cc1nc2nc(SCC(=O)NCCc3ccc(Cl)cc3)nn2c(C)c1Cc1ccccc1`, inactive: -0.701%.
The result for `CCCSc1ncc(Cl)c(C(=O)Nc2nc3ccc(OCC)cc3s2)n1` reads inactive: -13%.
